# Measurements from paper PMC6212790.
# Some of the results follow. At the low end of the ranking the order means little.
# Molecular target: T1, GST-Rok-C97-191 (UniProt O34857)
# T1 sequence: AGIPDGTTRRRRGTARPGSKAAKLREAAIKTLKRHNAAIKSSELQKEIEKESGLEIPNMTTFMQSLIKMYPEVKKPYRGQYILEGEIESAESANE
# Test: protein binding microarray;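 further: rank score from −0.5 (least bound) to 0.5 (best bound)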
# Settings: Rok is a gene silencer of Bacillus subtilis; high values mean tight binding; most listed sequences are background and not binding sites; double strand, one strand shown
row,Sequence,binding signal [E-score]
1,CACACTCC,-0.365
2,ACGATCTC,-0.183
3,AATATCAG,0.11
4,ACACACTC,-0.127
5,TCAGTCCA,-0.125
6,ATCTAACC,0.125
7,TGTCCAAA,0.0356
8,GAAGGTAA,0.0688
9,AAACCTGG,-0.125
10,ACCAGGGT,-0.0891
11,CCTCCTTC,-0.178
12,GGTGGAGA,-0.00514
13,AAGGTTCT,-0.0457
14,CAACATCG,-0.0362
15,CAATCCTG,-0.137
16,AGCAGTAA,0.14
17,CACCAAAC,0.211
18,CCTCCAGA,-0.16
19,GAGGACTA,0.0339
20,CTAGGGAG,-0.192
21,GACATGTA,0.161
22,CCCGGGCG,-0.327
23,AGACTGTG,-0.248
24,TCACGGAA,-0.117
25,AAGTAGGC,0.0185

row,Sequence,binding signal [E-score]
1,ACGGTACA,0.187
2,ACATTCGT,0.0623
3,TAAATTTA,0.405
4,ACGTGGTA,0.187
5,AGGGACGC,-0.331
6,CGATTGGA,-0.192
7,AGATTGTC,0.0556
8,TCGAACGA,0.00801
9,AATTCGTA,0.2
10,TCAGGAAA,0.0347
11,AGGAGCCC,-0.4
12,AAATTCGC,0.126
13,TATAAATA,0.381
14,CTCTCGCA,-0.118
15,CCTGATCG,-0.0596
16,ACAGCCAC,-0.145
17,GGGGGTAC,-0.318
18,ACTTAGAA,0.16
19,ACACTTAG,0.155
20,CCCATCGG,-0.353
21,CACACGAC,0.0658
22,CACCTATC,-0.0169
23,TGGGATAA,0.114
24,AGTACGCA,0.072
25,TAAGTCAA,-0.0154

row,Sequence,binding signal [E-score]
1,AGGACATG,-0.0776
2,GAGCGGTA,0.105
3,CTCCATTC,0.0954
4,ACTCAGTC,-0.17
5,GACTTATA,0.279
6,CTCGTAGA,0.121
7,AAATGTAC,0.364
8,ACTAGCGG,0.0831
9,CTTGTCAA,-0.0147
10,GGACCGCC,-0.258
11,TGCGTACA,-0.12
12,CCAACCAA,0.0659
13,AGCGGCGA,-0.117
14,CCCCATGA,-0.0466
15,CCGAGACC,-0.201
16,ATAATTAG,0.354
17,GAGAAGTA,0.197
18,ACGGTTCG,-0.141
19,GGGTAGTA,0.3
20,GAGTGTGA,-0.0487
21,ATCATACG,0.214
22,CTACTGGC,0.0387
23,CAACAAAG,0.0237
24,ATTCCTTC,-0.103
25,CGATTGAA,0.0889

row,Sequence,binding signal [E-score]
1,GGTCTTCA,-0.231
2,GAAACACC,0.019
3,ATAGGGAC,-0.176
4,CTGATGAC,-0.111
5,AAACGTCG,-0.103
6,CAAGTCTC,-0.316
7,ATGGCTCG,0.0233
8,ACGTGTAA,-0.0117
9,AAAACGCG,-0.0858
10,ACAGAACA,-0.15
11,ACTTCGCC,0.137
12,AACGTGAG,-0.0637
13,AGCGGGCG,-0.281
14,CCCGCGGG,-0.198
15,ATTCCTAA,0.045
16,AGGCTAAG,-0.133
17,CGTGTGCC,-0.151
18,CCGCCGAA,-0.158
19,ACCCCGCT,-0.104
20,AAACACAA,-0.0352
21,GCCCCCAA,-0.241
22,ATTACCTG,0.0992
23,ACACGTCC,-0.111
24,ATTTCCGC,0.0532
25,ACGTACGT,0.105

row,Sequence,binding signal [E-score]
1,AACCCATT,0.066
2,CGGATCGC,-0.124
3,CCAAGTAA,0.0468
4,ATGAAGTG,-0.198
5,ATGCGTGA,0.0743
6,ATATACAA,0.365
7,AGATTAAA,0.136
8,CCTTTTAC,-0.105
9,CAATCAAG,-0.0329
10,AATCAGAT,-0.0803
11,ATATTCAG,-0.000452
12,ACACCTAA,0.191
13,TGAGATCA,-0.0085
14,TGTATAAA,0.179
15,ATGCACAA,-0.0105
16,ACCGCTTA,0.0251
17,AAGAGGGT,-0.183
18,CATCCTGC,-0.0292
19,AATCGCCA,-0.00284
20,GGTGGGAA,-0.0164
21,CAAGTGCC,-0.21
22,ACCACGCT,-0.0294
23,TAAGGTGA,-0.0832
24,CATTAAGC,-0.0874
25,ATCACATG,0.253

row,Sequence,binding signal [E-score]
1,CCGCATAC,0.0942
2,ACCTGAGG,-0.0337
3,AAGGCAGA,-0.388
4,CAGCGCCA,-0.346
5,ACTAACGG,0.108
6,TCTAGGCA,-0.0549
7,TCAAATGA,-0.0314
8,AGACCTTG,-0.191
9,CGAGTTAG,0.0933
10,ACCCCATA,-0.221
11,AGCCCTGA,-0.247
12,ATGATGAC,0.0534
13,GATAGCCA,-0.0728
14,CGCGTCCC,-0.287
15,CGCTATTA,0.195
16,AGTGGATG,-0.131
17,AGGGCATC,-0.277
18,CGCGCTAC,-0.0357
19,AGTGGACA,-0.00917
20,TAAGAAGA,0.0262
21,AAGTTTTC,0.112
22,ATAAGGAC,-0.0777
23,CCTTATCC,-0.0314
24,ATCCGGTC,-0.0436
25,AGCTGAAA,0.0089

row,Sequence,binding signal [E-score]
1,ACTTAAAA,0.0575
2,AACCTCTG,-0.177
3,AATACAAA,0.313
4,ATCTATTG,0.252
5,GAGTACTA,0.0418
6,GCCGGCCA,-0.177
7,GGCGAACC,-0.0946
8,CTTTAATA,0.178
9,GAAGGATC,-0.0869
10,GGCCCTCA,-0.343
11,AAGGTGGC,-0.203
12,CTGGATCC,-0.183
13,ACTATTAA,0.302
14,ACTCTGGA,-0.0876
15,TAGTTTCA,0.361
16,ACGGGTCA,-0.188
17,AATTGGTG,-0.063
18,CATGACCC,-0.0304
19,AAATAAAT,0.144
20,AACGAATA,0.0885
21,CATTGAAA,-0.0234
22,CGCGCTGC,-0.234
